Reference: ChEMBL document CHEMBL1201862, “PubChem BioAssay data set” (2004)
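48-hour exposure; five concentrations; linearly interpolated endpoints. GI50: concentration for 50% inhibition of growth.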 Activity calls are given as the source filed them. Cut-off read from the data, not from the text of the source: active = GI50 up to about 1.1 µM and inactive = higher.

The compounds below were run on NCI-H322M (assay: growth of human tumour cells (NCI), 48 h).
`CCCCN(CCCC)C(=O)C(=O)C(C(=O)c1ccc(OC)cc1)c1ccc(OC)cc1` (stereo not drawn) was tested, and the GI50 was inactive: > 100 µM.
`COc1cc(OC)c(C(=O)c2cccs2)cc1N` was tested, and the GI50 was inactive: > 100 µM.
With `CCOC(=O)NC1CC2CCC1(OC)C=C2C` (stereo not drawn) the GI50 was inactive: > 100 µM.
`CC(C)(C)c1cc(C2c3cc4c(cc3OC(O)(CO)C2C(=O)O)OCO4)cc(C(C)(C)C)c1O.CC(C)(C)c1cc(C2c3cc4c(cc3OC3(O)COC(=O)C23)OCO4)cc(C(C)(C)C)c1O` (stereo not drawn) was tested, and the GI50 was inactive: 14.4 µM.
For `CCP(C)(C)=O`, the GI50 was inactive: > 100 µM.
`O=C(O)c1ccc(OCc2nc3cc(C(F)(F)F)ccc3nc2-c2ccccc2)cc1` was tested, and the GI50 was inactive: 64.1 µM.
In the case of `Cc1ccc(O)c(-c2cc(-c3ccccc3)nc(/N=C\c3ccccc3)n2)c1`, the GI50 is reported as inactive: 48.1 µM.
`O=[N+]([O-])c1ccc(CSc2nncc3[nH]cnc23)cc1` was tested, and the GI50 was inactive: > 100 µM.
`O=c1oc2ccccc2cc1-c1csc(Nc2ccc(F)cc2)n1` was tested, and the GI50 was inactive: 3.91 µM.
For `O=C1c2ccccc2-c2[nH]c3cn[nH]c(=O)c3c21`, the GI50 was inactive: > 100 µM.
`COc1ccc(-c2c(C(C)=O)c(C)n(C3OC(COC(C)=O)C(OC(C)=O)C(OC(C)=O)C3OC(C)=O)c(=S)c2C#N)cc1` (stereo not drawn) was tested, and the GI50 was inactive: > 100 µM.
In the case of `C=CCN1C(=O)/C(=C/c2ccccc2)N=C1SC1OC(COC(C)=O)C(OC(C)=O)C(OC(C)=O)C1OC(C)=O` (stereo not drawn), the GI50 is reported as inactive: 17.6 µM.
`COc1ccccc1/N=N/C(=N\NC(=O)c1ccc(C)cc1)c1ccc(N(CCC#N)CCC#N)cc1C` was tested, and the GI50 was inactive: 57.4 µM.
In the case of `N#Cc1nc(Sc2cnsn2)c(Sc2cnsn2)nc1C#N`, the GI50 is reported as inactive: 30.8 µM.
For `CC(=S)N/C=C1/C(=O)C=C(C)OC1=O`, the GI50 was inactive: > 100 µM.
In the case of `CCN(C(=N)C#N)c1ccccc1`, the GI50 is reported as inactive: > 100 µM.
With `Cc1ccc(/C=C(\C#N)c2ccccc2)cc1` the GI50 was inactive: > 100 µM.
`Cc1cc(-c2ccccc2)cc2[n+]1CC=C2.[O-][Cl+3]([O-])([O-])[O-]` was tested, and the GI50 was inactive: > 100 µM.
In the case of `N=C(N)CCNC(=O)C1CCC(N)=N1` (stereo not drawn), the GI50 is reported as inactive: 8.22 µM.
With `O=C(CN(Cc1ccccc1)Cc1ccccc1)N1CCc2c([nH]c3ccccc23)C1c1cccnc1` (stereo not drawn) the GI50 was inactive: 36.6 µM.
For `CN(CCCNc1ccc2ncn3c4ccccc4c(=O)c1c23)CCCN1C(=O)c2cccc3cc([N+](=O)[O-])cc(c23)C1=O`, the GI50 was active: 0.0142 µM.
In the case of `NC(=O)C12C3C4C1C1C2C3C41C(N)=O` (stereo not drawn), the GI50 is reported as inactive: > 100 µM.
With `C=C[C@@H]1OC(=O)O[C@H]1CO` the GI50 was inactive: > 100 µM.
In the case of `COC1CC(OC2OC(CO)C(O)C(O)C2O)/C(=C\C#N)C(O)C1OC` (stereo not drawn), the GI50 is reported as inactive: > 100 µM.
For `O=c1c2ccccc2nc(-c2ccccc2)n1NC1OC(CO)C(O)C(O)C1O` (stereo not drawn), the GI50 was inactive: > 100 µM.
With `COc1ccccc1-c1csc(CCC(N)C(=O)O)n1` (stereo not drawn) the GI50 was inactive: > 100 µM.
In the case of `[N-]=[N+]=NCc1cccc(Nc2cc(=O)[nH]c(=O)[nH]2)c1`, the GI50 is reported as inactive: > 100 µM.
With `COc1nc2ncc([C@@H](OC(C)=O)[C@@H](COC(C)=O)OC(C)=O)nc2c(=O)n1C` the GI50 was inactive: > 100 µM.
In the case of `O=C(O)c1c(O)c2cc(Br)ccc2oc1=O`, the GI50 is reported as inactive: 60.3 µM.
With `N#CNC(=N)NC(=O)/C=C/C=C/c1ccc(Cl)cc1` the GI50 was inactive: > 100 µM.
With `CCSc1ncnc2c(C3OC(CO)C(O)C3O)nsc12` (stereo not drawn) the GI50 was inactive: > 100 µM.
`Cc1cc2c(c(C(=O)NCCC(=O)N[C@@H](C)C(=O)OCc3ccccc3)c1)Oc1c(cc(C)cc1C(=O)NCCC(=O)N[C@@H](C)C(=O)OCc1ccccc1)S2` was tested, and the GI50 was inactive: > 100 µM.
With `CO[C@@H](c1ccccc1)[C@H](O)[C@@](O)(c1ccccc1)P(=O)(OC)OC` the GI50 was inactive: > 100 µM.
For `COC(=O)C1Cc2c(n(C)c3ccccc23)C(c2ccccc2)N1` (stereo not drawn), the GI50 was inactive: > 100 µM.
In the case of `COc1ccccc1-n1c(=O)n(C)c(=O)n1C(C)(C)C`, the GI50 is reported as inactive: > 100 µM.
In the case of `CN(C)C(=S)/N=c1\sn(C)/c(=N\C(=S)N(C)C)n1C`, the GI50 is reported as inactive: > 100 µM.
For `CCOC(=O)c1csc(NC(=O)C(C)N2CCCC2)n1` (stereo not drawn), the GI50 was inactive: > 100 µM.
In the case of `OC(c1cc(C23CC4CC(CC(C4)C2)C3)nc2c(Cl)cc(Cl)cc12)C1CCCCN1` (stereo not drawn), the GI50 is reported as inactive: 1.74 µM.
With `CCOC(=O)C(=C=C=C(c1ccccc1)c1ccccc1)C(=O)OCC` the GI50 was inactive: 29.8 µM.
With `CC1Cc2c(Br)nc(N)nc2NC1=O` (stereo not drawn) the GI50 was inactive: > 100 µM.
For `CC(C)CCCC(C)[C@H]1CCC2[C@H]3C(CC[C@@]21C)[C@@]1(C)CCC=C[C@]12C[C@@H]2[C@@H]3O` (stereo partly drawn), the GI50 was inactive: > 100 µM.
With `CC1CC2(CC[C@@H]1O)OCCO2` (stereo partly drawn) the GI50 was inactive: > 100 µM.
`CC1=C(N2CC2)C(=O)c2nc3n(c2C1=O)CCC3O` (stereo not drawn) was tested, and the GI50 was active: 0.38 µM.
`Nc1cccc(S(=O)(=O)NCC(=O)O)c1` was tested, and the GI50 was inactive: > 100 µM.
With `O=C(/C=C/c1ccc(O)c(O)c1)OCC(OC(=O)/C=C/c1ccc(O)c(O)c1)C(=O)O` (stereo not drawn) the GI50 was inactive: > 100 µM.
In the case of `CC(=O)c1c(O)nnc(-c2ccc(Cl)cc2)c1-c1ccc(Cl)cc1`, the GI50 is reported as inactive: 38.6 µM.
With `CCCc1cc2c(cc1O)CC[C@@H]1[C@@H]2CC[C@]2(C)[C@@H](O)CC[C@@H]12` the GI50 was inactive: 17.3 µM.
`CNC(=O)Nc1ccccc1` was tested, and the GI50 was inactive: > 100 µM.
